The record followed here is the antibiotic and cytotoxicity screens of Wong et al. (2023).

Some of the results follow.

The subject of this assay is S. aureus RN4220. Description: growth inhibition call (relative growth <= 0.2). The following applies: 50 µM.
Consider `Cc1ccc(S(=O)(=O)Nc2ccc3c(c2)C(=O)N([C@H](C)CO)C[C@H](C)[C@H](CN(C)C(=O)Nc2ccc4c(c2)OCO4)OCCCC[C@@H](C)O3)cc1`, for which the growth inhibition call is “inactive”.

Turning to `C[C@@H]1CN([C@@H](C)CO)C(=O)c2cc(NS(=O)(=O)c3ccccc3)ccc2O[C@@H](C)CCCCO[C@H]1CN(C)Cc1ccccc1`, the growth inhibition call was “inactive”.

With `O=C(CN1CCOCC1)NCC[C@@H]1CC[C@@H](NC(=O)Cc2ccccn2)[C@H](CO)O1`, the growth inhibition call was “inactive”.

With `COc1ccc(S(=O)(=O)Nc2ccc3c(c2)C(=O)N([C@@H](C)CO)C[C@@H](C)[C@@H](CN(C)C(=O)Nc2ccc(F)cc2)OCCCC[C@H](C)O3)cc1`, the growth inhibition call is “inactive”.

As for `C[C@H]1CCCCO[C@@H](CN(C)Cc2ccc(C(F)(F)F)cc2)[C@@H](C)CN([C@@H](C)CO)C(=O)c2cc(NC(=O)Nc3ccc(C(F)(F)F)cc3)ccc2O1`, the growth inhibition call was “inactive”.

For the compound `COc1ccc(CN(C)C[C@@H]2Oc3ccc(NC(=O)Cn4cnnn4)cc3C(=O)N([C@H](C)CO)C[C@@H]2C)cc1`, the growth inhibition call is “inactive”.

For `C[C@H]1CCCCO[C@H](CN(C)CC2CC2)[C@@H](C)CN([C@@H](C)CO)C(=O)c2cc(NC(=O)CCC(F)(F)F)ccc2O1`, the growth inhibition call is “inactive”.

Consider `O=C(O)c1cccc(O)c1O`, for which the growth inhibition call is “inactive”.

Turning to `C[C@H]1CN([C@@H](C)CO)C(=O)c2cccc(NS(=O)(=O)c3cn(C)cn3)c2O[C@H]1CN(C)Cc1ccncc1`, the growth inhibition call was “inactive”.

Regarding `CCCC#Cc1cnc2c(c1)C(=O)N([C@@H](C)CO)C[C@H](C)[C@@H](CN(C)C(=O)c1ccc3c(c1)OCO3)O2`, the growth inhibition call was “inactive”.

As for `C[C@@H]1CN([C@H](C)CO)C(=O)c2cc(NS(=O)(=O)c3ccc(Cl)cc3)ccc2O[C@@H]1CN(C)Cc1ccc(Oc2ccccc2)cc1`, the growth inhibition call was “inactive”.
